# This is one part of the list.
# B1: StcE (Escherichia coli), O82882.2 (protein)
# chain: ADNNSAIYFNTSQPINDLQGSLAAEVKFAQSQILPAHPKEGDSQPHLTSLRKSLLLVRPVKADDKTPVQVEARDDNNKILGTLTLYPPSSLPDTIYHLDGVPEGGIDFTPHNGTKKIINTVAEVNKLSDASGSSIHSHLTNNALVEIHTANGRWVRDIYLPQGPDLEGKMVRFVSSAGYSSTVFYGDRKVTLSVGNTLLFKYVNGQWFRSGELENNRITYAQHIWSAELPAHWIVPGLNLVIKQGNLSGRLNDIKIGAPGELLLHTIDIGMLTTPRDRFDFAKDKEAHREYFQTIPVSRMIVNNYAPLHLKEVMLPTGELLTDMDPGNGGWHSGTMRQRIGKELVSHGIDNANYGLNSTAGLGENSHPYVVAQLAAHNSRGNYANGIQVHGGSGGGGIVTLDSTLGNEFSHEVGHNYGLGHYVDGFKGSVHRSAENNNSTWGWDGDKKRFIPNFYPSQTNEKSCLNNQCQEPFDGHKFGFDAMAGGSPFSAANRFTMYTPNSSAIIQRFFENKAVFDSRSSTGFSKWNADTQEMEPYEHTIDRAEQITASVNELSESKMAELMAEYAVVKVHMWNGNWTRNIYIPTASADNRGSILTINHEAGYNSYLFINGDEKVVSQGYKKSFVSDGQFWKERDVVDTREARKPEQFGVPVTTLVGYYDPEGTLSSYIYPAMYGAYGFTYSDDSQNLSDNDCQLQVDTKEGQLRFRLANHRANNTVMNKFHINVPTESQPTQATLVCNNKILDTKSLTPAPEGLTYTVNGQALPAKENEGCIVSVNSGKRYCLPVGQRSGYSLPDWIVGQEVYVDSGAKAKVLLSDWDNLSYNRIGEFVGNVNPADMKKVKAWNGQYLDFSKPRSMRVVYK
# How the values were obtained:
# Test in all cases: glycan array binding signal (z-score within array); higher = stronger binding
# Settings in all cases: glycan notation: IUPAC condensed, linker removed
# [1] = biological target: Fuc(a1-2)[Gal(a1-3)]Gal(b1-4)GlcNAc(b1-6)GalNAc
# Outline: (§1)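 From the Consortium for Functional Glycomics database, 3228 arrays were curated, keeping only those whose protein sequence was available. Binding is given as a within-array Z-score averaged across arrays sharing a protein sequence and across linkers. Negative Z-scores can be read as non-binding.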
# [2] = biological target: Fuc(a1-2)[Gal(a1-3)]Gal(b1-4)[Fuc(a1-3)]Glc
# Outline: as §1
# [3] = biological target: Fuc(a1-2)[Gal(a1-3)]Gal(b1-4)[Fuc(a1-3)]GlcNAc
# Outline: as §1
# [4] = biological target: Fuc(a1-2)[Gal(a1-3)]Gal(b1-4)[Fuc(a1-3)]GlcNAc(b1-3)GalNAc
# Outline: as §1
# [5] = biological target: Fuc(a1-2)[Gal(a1-4)]Gal(b1-4)GlcNAc
# Outline: as §1
# [6] = biological target: Fuc(a1-2)[GalNAc(a1-3)]Gal
# Outline: as §1
# [7] = biological target: Fuc(a1-2)[GalNAc(a1-3)]Gal(b1-3)GalNAc(a1-3)[Fuc(a1-2)]Gal(b1-4)GlcNAc
# Outline: as §1
# [8] = biological target: Fuc(a1-2)[GalNAc(a1-3)]Gal(b1-3)GlcNAc
# Outline: as §1
# [9] = biological target: Fuc(a1-2)[GalNAc(a1-3)]Gal(b1-3)GlcNAc(b1-2)Man(a1-3)[Fuc(a1-2)[GalNAc(a1-3)]Gal(b1-3)GlcNAc(b1-2)Man(a1-6)]Man(b1-4)GlcNAc(b1-4)GlcNAc
# Outline: as §1
# [10] = biological target: Fuc(a1-2)[GalNAc(a1-3)]Gal(b1-3)GlcNAc(b1-2)Man(a1-3)[Fuc(a1-2)[GalNAc(a1-3)]Gal(b1-3)GlcNAc(b1-2)Man(a1-6)]Man(b1-4)GlcNAc(b1-4)[Fuc(a1-6)]GlcNAc
# Outline: as §1
# [11] = biological target: Fuc(a1-2)[GalNAc(a1-3)]Gal(b1-3)GlcNAc(b1-3)GalNAc
# Outline: as §1
# [12] = biological target: Fuc(a1-2)[GalNAc(a1-3)]Gal(b1-3)GlcNAc(b1-6)GalNAc
# Outline: as §1
# [13] = biological target: Fuc(a1-2)[GalNAc(a1-3)]Gal(b1-4)Glc
# Outline: as §1
# [14] = biological target: Fuc(a1-2)[GalNAc(a1-3)]Gal(b1-4)GlcNAc
# Outline: as §1
# [15] = biological target: Fuc(a1-2)[GalNAc(a1-3)]Gal(b1-4)GlcNAc(b1-2)Man(a1-3)[Fuc(a1-2)[GalNAc(a1-3)]Gal(b1-4)GlcNAc(b1-2)Man(a1-6)]Man(b1-4)GlcNAc(b1-4)GlcNAc
# Outline: as §1
# [16] = biological target: Fuc(a1-2)[GalNAc(a1-3)]Gal(b1-4)GlcNAc(b1-2)Man(a1-3)[Fuc(a1-2)[GalNAc(a1-3)]Gal(b1-4)GlcNAc(b1-2)Man(a1-6)]Man(b1-4)GlcNAc(b1-4)[Fuc(a1-6)]GlcNAc
# Outline: as §1
# [17] = biological target: Fuc(a1-2)[GalNAc(a1-3)]Gal(b1-4)GlcNAc(b1-3)Gal(b1-4)GlcNAc
# Outline: as §1
# [18] = biological target: Fuc(a1-2)[GalNAc(a1-3)]Gal(b1-4)GlcNAc(b1-3)Gal(b1-4)GlcNAc(b1-3)Gal(b1-4)GlcNAc
# Outline: as §1
# [19] = biological target: Fuc(a1-2)[GalNAc(a1-3)]Gal(b1-4)GlcNAc(b1-3)GalNAc
# Outline: as §1
# [20] = biological target: Fuc(a1-2)[GalNAc(a1-3)]Gal(b1-4)[Fuc(a1-3)]GlcNAc
# Outline: as §1
# [21] = biological target: Fuc(a1-2)[GalNAc(a1-3)]Gal(b1-4)[Fuc(a1-3)]GlcNAc(b1-3)GalNAc
# Outline: as §1
# [22] = biological target: Fuc(a1-2)[GalNAc(a1-4)]Gal(b1-4)GlcNAc
# Outline: as §1
# [23] = biological target: Fuc(a1-2)[GalNAc(b1-3)]Gal
# Outline: as §1
# Fuc(a1-3)GlcNAc = biological target: Fuc(a1-3)GlcNAc
# Outline: as §1
# [24] = biological target: Fuc(a1-3)[Gal(b1-4)]Glc6S
# Outline: as §1
# [25] = biological target: Fuc(a1-3)[Gal(b1-4)]GlcNAc
# Outline: as §1
# [26] = biological target: Fuc(a1-3)[Gal(b1-4)]GlcNAc(b1-2)Man
# Outline: as §1
# [27] = biological target: Fuc(a1-3)[Gal(b1-4)]GlcNAc(b1-2)Man(a1-3)[Fuc(a1-3)[Gal(b1-4)]GlcNAc(b1-2)Man(a1-6)]Man(b1-4)GlcNAc(b1-4)GlcNAc
# Outline: as §1
# [28] = biological target: Fuc(a1-3)[Gal(b1-4)]GlcNAc(b1-2)Man(a1-3)[Fuc(a1-3)[Gal(b1-4)]GlcNAc(b1-2)Man(a1-6)]Man(b1-4)GlcNAc(b1-4)[Fuc(a1-6)]GlcNAc
# Outline: as §1
# [29] = biological target: Fuc(a1-3)[Gal(b1-4)]GlcNAc(b1-3)Gal(b1-3)[Fuc(a1-4)]GlcNAc
# Outline: as §1
binder,measurement,setting,value
B1,glycan array binding signal (z-score),[1],-0.052
same,glycan array binding signal (z-score),[2],-0.158
same,glycan array binding signal (z-score),[3],-0.14
same,glycan array binding signal (z-score),[4],-0.14
same,glycan array binding signal (z-score),[5],-0.178
same,glycan array binding signal (z-score),[6],-0.251
same,glycan array binding signal (z-score),[7],-0.079
same,glycan array binding signal (z-score),[8],-0.164
same,glycan array binding signal (z-score),[9],-0.132
same,glycan array binding signal (z-score),[10],0.015
same,glycan array binding signal (z-score),[11],-0.096
same,glycan array binding signal (z-score),[12],0.26
same,glycan array binding signal (z-score),[13],-0.141
same,glycan array binding signal (z-score),[14],-0.038
same,glycan array binding signal (z-score),[15],-0.15
same,glycan array binding signal (z-score),[16],-0.164
same,glycan array binding signal (z-score),[17],-0.145
same,glycan array binding signal (z-score),[18],-0.164
same,glycan array binding signal (z-score),[19],-0.15
same,glycan array binding signal (z-score),[20],-0.181
same,glycan array binding signal (z-score),[21],-0.009
same,glycan array binding signal (z-score),[22],-0.156
same,glycan array binding signal (z-score),[23],-0.207
same,glycan array binding signal (z-score),Fuc(a1-3)GlcNAc,-0.372
same,glycan array binding signal (z-score),[24],-0.147
same,glycan array binding signal (z-score),[25],-0.454
same,glycan array binding signal (z-score),[26],-0.148
same,glycan array binding signal (z-score),[27],-0.16
same,glycan array binding signal (z-score),[28],-0.117
same,glycan array binding signal (z-score),[29],-0.162

# From the supplement of paper PMC8728848
